Measurements taken from PubChem BioAssay AID1346428 (National Center for Advancing Translational Sciences (NCATS), 2018).
Screen size: about 48,000 compounds; about 1,200 (2.5%) were called active. About 2% were inconclusive and are not listed.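 The calls were made as follows: active = activation of at least 60% and not above a set upper limit (about 1 call in 100 departs from these limits); inconclusive = activation of 40% to 60%, or above that upper limit; inactive = activation under 40%.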 The list shows a part of the results.

The compounds below were run against Probable G-protein coupled receptor 32 (Homo sapiens) (UniProt O75388) (assay: qHTS for Agonists of Human Resolvin D1 Receptor DRV1). Details: CHO-K1 GPR32 beta-arrestin PathHunter luminescence, 90 min; at 76.9 µM; active compounds read high; zero percent set by DMSO-only wells.
Chain of UniProt O75388 (O75388 whole entry, looked up): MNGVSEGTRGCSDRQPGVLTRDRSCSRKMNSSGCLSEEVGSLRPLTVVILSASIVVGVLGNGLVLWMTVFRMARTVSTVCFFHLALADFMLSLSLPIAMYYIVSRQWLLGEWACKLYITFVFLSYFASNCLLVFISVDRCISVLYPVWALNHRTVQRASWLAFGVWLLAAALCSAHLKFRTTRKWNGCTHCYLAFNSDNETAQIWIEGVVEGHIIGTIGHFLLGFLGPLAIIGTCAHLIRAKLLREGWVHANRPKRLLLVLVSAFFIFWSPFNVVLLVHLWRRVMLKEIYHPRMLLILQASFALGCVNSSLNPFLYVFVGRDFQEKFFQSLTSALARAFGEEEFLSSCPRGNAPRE
Method in brief: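 PathHunter beta-arrestin recruitment in CHO-K1 cells stably expressing ProLink-tagged GPR32. Cells were exposed to compound for 90 min at 37 C, then chemiluminescence was read after 1 h detection at ambient temperature; DMSO served as basal control.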
Also: 0% is about no effect.

activation, active:
COc1ccc2cc3cc(C(=O)Nc4ccccc4C)oc3nc2c1 98.5%

activation, inactive:
Oc1c(C(c2ccc(Cl)cc2)N2CCOCC2)sc2nc(-c3ccco3)nn12 (stereo unspecified) 3.94%
CC1CCN(S(=O)(=O)c2ccc3nc(N4CCN(c5ccccc5)CC4)ccc3c2)CC1 -0.307%
Fc1cccc(CSc2nc(NCCc3ccccc3)c3ccccc3n2)c1 -17.2%
COc1ccccc1OCC(=O)Nc1cc(-c2ccc(C)cc2)no1 -0.849%
COc1cccc([C@H]2Nc3ccc(S(=O)(=O)Nc4cc(C)ccc4C)cc3[C@H]3C=CC[C@H]32)c1 -37%
CC(=O)c1cc(-c2ccc(F)cc2)n(CC(=O)NCc2ccc(C)cc2)c1C -7.58%
COc1cc(NS(=O)(=O)c2cccs2)cc(OC)c1 14.3%
Cc1cc(C)c(OCC(=O)Nc2cccc(-c3nc4ncccc4o3)c2)c(Br)c1 -5.7%
O=C(c1ccccc1Cl)N1CCN(CCc2ccccn2)CC1 12.3%
O=C(CSc1nc(-c2ccco2)nc2cc(=O)[nH]n12)Nc1ccccc1F -18.5%
COc1cccc(C(=O)Nc2ccccc2-c2nnc(-c3ccc(C(C)(C)C)cc3)o2)c1 -2.57%
COc1ccc(NC(=O)CSc2nc(C)cc(C)c2C(=O)Nc2cccc(C)c2)cc1 -15.1%
CCCOC(=O)c1ccc(Nc2nc3ccccc3nc2-n2nc(C)cc2C)cc1 -12.4%
C[C@@H](NC(=O)CN(c1ccccc1)S(=O)(=O)N(C)C)c1ccccc1 7.98%
CCOc1ccc(-c2cc(CCCC(=O)NCCc3ccc(OCC)c(OCC)c3)no2)cc1 7.65%
CCN1CCN(C(=O)c2ccc3c(c2)N(Cc2ccccc2F)C(=O)c2ccccc2S3(=O)=O)CC1 -28.1%
Cc1ccccc1NC(=O)c1ccc(F)c(S(=O)(=O)NC2CCCC2)c1 -19.3%
COc1cc(NS(=O)(=O)c2ccc(NC(=O)c3ccc(C(C)=O)cc3)cc2)nc(OC)n1 -13.3%
COc1ccc(NC(=O)c2sc3nc4c(cc3c2N)CCCCCC4)cc1Cl 26.5%
CCOC(=O)c1cccc(NC(=O)N2CC(CC)Oc3ccccc32)c1 (stereo unspecified) -34%
COc1cccc(N(C)C(=S)Oc2ccc3c(c2)CCCC3)n1 15.3%
Cc1ccc(N2CCN(C(=O)c3c(C)oc4nc(C)nc(N5CCCC5)c34)CC2)c(C)c1 1.58%
Cc1cccc(-n2ncc(C(=O)NCc3ccco3)c2C2CCN(C(=O)OC(C)(C)C)CC2)c1 -23.7%
Cc1cccc(CNC(=O)CCCN2C(=O)COc3ccc(C)cc32)c1 -18.5%
CCn1c(=O)c2cc(C(=O)N(C)c3cc(Cl)c(OC)cc3OC)sc2c2ccccc21 1.65%
Cc1nc2cccnc2n1C1CCN(S(=O)(=O)c2ccc(C(C)C)cc2)CC1 33.1%
CCc1nn(CC(=O)NCCN(CC)CC)c(=O)c2cc3occc3n12 5.73%
O=C(CSc1ncc2c(n1)-c1ccccc1N(Cc1ccc(F)cc1)S2(=O)=O)NCc1ccccc1 -21.8%
CCOc1ccc(NC(=O)c2noc3c2CSc2ccccc2-3)cc1 -8.88%
O=C(NCc1ccc(Cl)cc1)C1CCN(S(=O)(=O)c2ccc3c(c2)CCCN3C(=O)C2CCC2)CC1 -17.5%
CC(C)(C)c1ccc(S(=O)(=O)N2CCN(C(=O)c3cc(-c4ccc(Br)cc4)n[nH]3)CC2)cc1 -6.87%
O=C(CSc1nc(O)c(C/C=C/c2ccccc2)c(=O)[nH]1)Nc1cccc(F)c1 -3.42%
O=C(Nc1ccc2oc(-c3cc(Br)ccc3Cl)nc2c1)c1ccc2ccccc2c1 7.13%
COc1cccc(CNC(=O)c2nnc(Cc3ccc(Cl)cc3)o2)c1 14.1%
COc1cc(-c2noc(-c3ccc(N4CCCCC4)c([N+](=O)[O-])c3)n2)cc(OC)c1OC 0.997%
CCOCCc1nn2c(=O)cc(COC(=O)c3ccco3)nc2s1 -2.9%
COc1ccc(-c2cc(C)no2)cc1S(=O)(=O)N1CC(C)Oc2ccccc21 (stereo unspecified) -28.8%
COc1ccccc1N1CCN(c2ncnc3onc(C)c23)CC1 22.4%
O=C(CSc1ccc(-c2cccs2)nn1)Nc1cccc(F)c1 26.2%
CCN1CCN(CCCNC(=O)c2ccc3c(c2)sc2nc(-c4ccc(C)cc4)cn23)CC1 1.21%
